From the supplement of paper PMC11417369
± gives the standard deviation of the averaged measurements. This is one part of the list.

Tested on: PfAP2-EXP AP2 domain (GST-tagged)
Assay: gcPBM binding intensity (ln(normalized median fluorescence intensity)); higher = stronger DNA binding
Procedure, shortened: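 Probes on an Agilent 4 × 180k array were primer-extended, double-stranded and 36 bp long, taken from intergenic genomic regions, with negative controls added. GST-tagged P. falciparum DNA-binding domains from E. coli, about 25 μg on average, were applied to the array for 1 h in 1× PBS containing 1% milk, 0.2 mg/ml BSA, 0.5% salmon testes DNA and 0.03% Triton X-100. Binding intensity, obtained after Alexa488 anti-GST antibody detection and a 488 nm scan, is the highest Masliner-normalised natural-log median intensity across replicate spots of either probe orientation.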

Row | Sequence | gcPBM binding intensity (ln)
1 | CCAATGTTTTCTTGTGTACACATCATTAAAGAAAAA [CACACA_site5300] | 9.02 ± 0.099
2 | CATGAAAATATTATGTGTACTTAATGCACATTCAAA [XGTACX_site1952] | 8.55 ± 0.11
3 | CACGCATACAGACACACACACACACCGATATATATA [CACACA_site8113] | 8.71 ± 0.36
4 | AAAAAAAAACAAAAAAGTACAAAATAAAAATACGTT [XGTACX_site4566] | 8.71 ± 0.58
5 | CTCTTCATATATAATTGTACACACAAAAACGACATT [XGTACX_site4287] | 9.04 ± 0.57
6 | AATAAATATATACATTGTACATATATAATATATATA [XGTACX_site1458] | 8.41 ± 0.092
7 | TAAATTATAATATGCACACAAAATGTTATATTAAAA [CACACA_site376] | 8.13 ± 0.23
8 | TATATATATTTTGGCTGTACATCAGCGTATATTTTT [XGTACX_site3233] | 8.46 ± 0.29
9 | CCTATCCATGCATATACACACATATCTATTTATATA [CACACA_site6886] | 8.99 ± 0.35
10 | CATATATACGCATACACACACACACCCACACCCACA [CACACA_site1725] | 8.79 ± 0.52
11 | TACAAATATATATGCACACACATATACATACAGATA [CACACA_site5238] | 8.41 ± 0.35
12 | TGATGAAAATCTACATGAATGTTTTTATATCTATAT [GTGCAC_negctrl_site139] | 8.25 ± 0.31
13 | TATTTATACCTATACACACACACACGGATATTTATA [CACACA_site7123] | 8.63 ± 0.53
14 | AATTAACAAAAACACACACACACACCGACAAAAAAA [CACACA_site4444] | 8.72 ± 0.59
15 | ATATGCTTATTGTAAAGTACATTATTATTTTTCCTA [XGTACX_site5479] | 8.51 ± 0.29
16 | GATAAAATCACTGGTGCATGTAGATATATAATATTA [TGCATGCA_site589] | 9.03 ± 0.042
17 | ATGAATAAATAAGACACACACGAAAATAAGTAAAAA [CACACA_site4216] | 9.13 ± 0.44
18 | TATTTTGATTATTCAGTGTATAAATATATATATATA [CACACA_negctrl_site545] | 9.79 ± 0.31
19 | TAGTTAGCCCAAGGGGTGCTAATTACTATCTAAATA | 8.08 ± 0.13

Row | Sequence | gcPBM binding intensity (ln)
20 | CATACATATAAACACACACACACACCCACCCACAAA [CACACA_site8059] | 9.11 ± 0.74
21 | TATAGAAGCAAATTATGTACACAATATGGAAAATCA [XGTACX_site3345] | 8.97 ± 0.47
22 | TTTATAAATATTCTCACACACTTTTTATTTTAACAA [CACACA_site6454] | 8.39 ± 0.42
23 | AACACCAATTCATATGCACACACATCTGCATATTAT [CACACA_site8523] | 8.89 ± 0.31
24 | GTCGAGGATATATAAAGTACATATATATATATGATA [XGTACX_site1128] | 8.61 ± 0.28
25 | TAATGTATCTAAAATTGTACAAATATAAATATAAAT [XGTACX_site2764] | 8.52 ± 0.33
26 | CACTAAATAAGGAAAGTGCATAAAATAAAGGTTATA [GTGCAC_site9793] | 8.91 ± 0.39
27 | TAGTTACCTTAATATTGTACTTTTCTTTCATATATG [XGTACX_site1309] | 8.82 ± 0.38
28 | ATAGTTTCTGGTAGCTGTACGAGTCGTAGAGTGCAG [XGTACX_site2022] | 8.73 ± 0.6
29 | GTGTCAAATTTTATAACACACAAAAGGTTATATAAG [CACACA_site7839] | 8.47 ± 0.45
30 | TACAGTTTTTCTTTGAATTTATCAAGTTTTTTTCCC [XGTACX_negctrl_site60] | 8.56 ± 0.6
31 | ATTTAAAAAATATATTGTACATATTTTATTATGTTT [XGTACX_site2984] | 8.29 ± 0.35
32 | AAAAAAAAATTGTGTACACATAATTATATCATATGT [CACACA_site4500] | 8.56 ± 0.23
33 | ATGGATAATAAGTTTACACACAAAAAAAAAGAAAAA [CACACA_site861] | 8.65 ± 0.48
34 | ATAAGAATCATATTTAAACACACATACATATATATA [CACACA_site9106] | 8.84 ± 0.31
35 | ATTATATTAACAATGACATGCAATTCTTAATCCTTA [TGCATGCA_site648] | 8.41 ± 0.45
36 | AAAAAAAAAAAATACACACACATAAAAAAAAAAATA [CACACA_site1858] | 8.37 ± 0.41
37 | TTTTTATTGGTGAATACACACGTATATATATATTAT [CACACA_site8756] | 8.71 ± 0.52
38 | ATTAAATAAACCATTACACACTTTTATGTTTTGAAA [CACACA_site1143] | 8.41 ± 0.39

Row | Sequence | gcPBM binding intensity (ln)
39 | CACAAACAAAAACACACACACACACCGACAAAAATG [CACACA_site5362] | 8.59 ± 0.61
40 | TTCTTTCTAGAATATTGTACATATATTGTTATTATA [XGTACX_site8425] | 8.54 ± 0.35
41 | AAAAGAAGATAATACAGTACAGAATAATATAAAATA [XGTACX_site5962] | 8.82 ± 0.3
42 | TATAAATATTTATACACACACACATTAATACCTATA [CACACA_site7604] | 8.89 ± 0.33
43 | AGAAAGAAGATATATACACACAAAAAAAGATATATA [CACACA_site6779] | 8.79 ± 0.4
44 | TTTTGTTAAAAAGATGTATATTTTATAAATATTTAT [CACACA_negctrl_site101] | 8.01 ± 0.45
45 | AAATAAAATAAATAATATAAAATAATATATAAAAAA [CACACA_negctrl_site1777] | 8.35 ± 0.35
46 | ATTTTTAAATACAGTACACACATGGGTTTAAATTAT [CACACA_site2884] | 8.63 ± 0.38
47 | TATTCTAGAATTTTAACACACAAGAATATAAACTTT [CACACA_site6757] | 8.26 ± 0.4
48 | TATTTATATTTATATACACACATATATACCTATATA [CACACA_site7820] | 8.43 ± 0.35
49 | GATTATTTTAGAAGTACACACATTTATATATAATAA [CACACA_site5429] | 8.61 ± 0.13
50 | TCCTATAAACAAATTTGTACATATAAGAATATATTC [XGTACX_site3892] | 8.62 ± 0.38
51 | TTATTATTCTTAAGGATATAACAAAAAAGAAAAATT [CACACA_negctrl_site1402] | 8.47 ± 0.5
52 | GGTTATATGATAGGATGTACAATTAAAAGTAAATAT [XGTACX_site5083] | 8.86 ± 0.38
53 | TAAAATATAATGATCACACATATAAACAAGTGGGTA [CACACA_site4651] | 8.58 ± 0.42
54 | TATGGATAAATAAATACACACATAAATTTAAATATA [CACACA_site1282] | 8.58 ± 0.47
55 | GCCGCACCCAGATACGCACACAAGAAAAAAATATTC [CACACA_site3456] | 8.63 ± 0.26
56 | TGAACATTATAGAAAAGTACTTAGTTTTTAAAAAGA [XGTACX_site6864] | 8.57 ± 0.42
57 | TATTCAAAACGGTATTGTACAAATTTTATAATTTAA [XGTACX_site6928] | 8.34 ± 0.47
